The labels stand for the following.
B1: tRNA (parent)
chain: CUCUCGGUAGCCAAGUUGGUUUAAGGCGCAAGACUUUAAUUUAUCACUACGAAAUCUUGAGAUCGGGCGUUCGACUCGCCCCCGGGAGAUUUUUUCCUCGAGCAA

Variants at the floor of the assay are shown more often than the library holds them.

The results in this text go back to the RNAGym collection of RNA variant scans (doi:10.1101/gad.245936.114).

In the data set the parent is B1. The data set is described as follows: nonsense suppression (GFP-seq) (ratio to wild type); higher = more function; SUP4oc tRNA, yeast GFP reporter sort-seq. Put shortly: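 To measure nonsense suppression, tRNA variants from a library carrying ~3% random mutations were integrated into the yeast genome alongside RFP and a GFP ochre reporter under galactose control. Growth took place in raffinose/galactose medium supplemented with 80 mg/L adenine, followed by sorting into GFP/RFP bins and Illumina sequencing of each bin (phred ≥30). For each variant with ≥100 reads and ≥30 cells, the bin median GFP/RFP values were weighted by its estimated cell share per bin and referenced to the unmutated parent tRNA.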
In the case of G19U U22G U35A G61U C72A, the nonsense suppression is not above 0.026. Under C3G G61C G65A stands not above 0.026; under C72G A87C, not above 0.026; under C1U C56A G61C, not above 0.026.

U22A C27G C80G: the nonsense suppression was not above 0.026. Under U8A A24G G69C C81A stands not above 0.026. For U2A U21A G88A the value was not above 0.026.

Consider C1A C77G, for which the nonsense suppression was not above 0.026. With A13G A54C U63C, the nonsense suppression was not above 0.026. Under C11A G59A G61U stands not above 0.026; under A33U G69C G73A, not above 0.026. Take A14C G67C C75G: the nonsense suppression was not above 0.026. As for U8G G15A U21C A30G C82A G88C, the nonsense suppression is not above 0.026. For A14U G18A A54G the value was not above 0.026; for G10U G32C G73U, not above 0.026. For C11U A30C G61A G69A G88C the value was not above 0.026; for C34U A89G, not above 0.026.

Consider U4A A62G, for which the nonsense suppression is not above 0.026. For C12U G18U U20G the value was not above 0.026; for C3A C12G U57C A87U, not above 0.026. For G7A C29A C56U C64U the value was not above 0.026; for G66U C68A G86A, not above 0.026; for U8A C12A, not above 0.026. For G7C U57C U58G U71C the value was not above 0.026. Turning to G19C C77U, the nonsense suppression is not above 0.026. Under C5A U76A stands not above 0.026; under C27G U57G G84C, not above 0.026.

Regarding C34U U63C C80U, the nonsense suppression is not above 0.026. For A54C U55A G61C the value was not above 0.026; for A30C C34A U57C G78C, not above 0.026. For U20C A33G C34U C81G the value was not above 0.026; for C1G G18U U63G C79G, not above 0.026; for G59A C64G U70C, not above 0.026. A23C G65A C72U: the nonsense suppression was not above 0.026. Under A9U C11G C68A stands not above 0.026; under C27G A60C C68A, not above 0.026; under U4C G7A C27G, not above 0.026.

For the variant A30G A33G C72A, the nonsense suppression is not above 0.026.

In the case of C64A A87U, the nonsense suppression was not above 0.026. Under A33C C64A G85U stands not above 0.026.

C29G U76C: the nonsense suppression was not above 0.026. For U4G A60G U71C C72A G73C C79A the value was not above 0.026; for U8C U21G A60U A89C, not above 0.026; for G15U C29U G67C, not above 0.026. For the variant A24C G32A, the nonsense suppression is not above 0.026. For U35A U63C G69U G85C the value was not above 0.026. For C68A G73C A74U the value was not above 0.026; for U55C U57C A60C A74G, not above 0.026. For C5G U71G the value was not above 0.026; for U8C G18U G85A, not above 0.026. Regarding G7C C12A U71G U76C G88A, the nonsense suppression is not above 0.026.

For the variant A13U G19U, the nonsense suppression is not above 0.026.

In the case of C1U A30C U71G, the nonsense suppression was not above 0.026.

Turning to U17C G65C, the nonsense suppression was not above 0.026. Under U2C G25A A30C G59U stands not above 0.026.

On to U21A G69C U76C, for which the nonsense suppression was not above 0.026. As for U8C U63G, the nonsense suppression is not above 0.026. In the case of C3U G7A U17G, the nonsense suppression was not above 0.026. Consider C11U A30G G69A, for which the nonsense suppression is not above 0.026. For A62G G86U A89G the value was not above 0.026; for G6U U8G C81A, not above 0.026; for A9G C56A, not above 0.026. Under U16C C82G stands not above 0.026; under C1G G61A C75A, not above 0.026. Under A14G U71G stands not above 0.026; under C3U, 0.739. For G10A U35A, the nonsense suppression was not above 0.026. For G6A U17C the value was not above 0.026.

As to A14U A89G, the nonsense suppression is not above 0.026. In the case of U8A G19U C29G A30C A31G G84A, the nonsense suppression was not above 0.026.

As to G19C A74C, the nonsense suppression was not above 0.026.

Turning to C5G G25U A33G G61U G69U, the nonsense suppression is not above 0.026. For the variant G66A C79G, the nonsense suppression was not above 0.026. For A13G G66U C72G the value was not above 0.026. For U58A C79A the value was not above 0.026.

Turning to C12U G32C C77U G78U, the nonsense suppression is not above 0.026. Under G18C U20C A33U A74C C77U stands not above 0.026. Under U17A G66C stands not above 0.026; under G61U C82U, 0.73.

With G59C A60C U71G G78A, the nonsense suppression is not above 0.026. Under U57G U70G stands not above 0.026.

As to A24U G25C, the nonsense suppression was not above 0.026. Under G19C A54G G85A stands not above 0.026.
